Consider 167 variants from the RNAGym collection of RNA variant scans (doi:10.7554/elife.90254).

The source gives no read counts; variants with many changes may rest on few reads.

Sequences and labels used below:
B1: LINE1-mini (parent)
chain: GGCAGAGCUCAACACAGCGUGGCAAAGUGGCUGUGGCUAGACUGCC

In the data set the parent is B1. The data set is described as follows: self-cleavage, relative activity (ratio to wild type); higher = more cleavage; in vitro, sequencing; the parent is a self-cleaving ribozyme.
In the case of A4U A14G G27A, the self-cleavage came out at 0.05.
On to A4U C8A G35U, for which the self-cleavage turned out to be 0.1.
For A4U A24U G27A U34C U43C, the self-cleavage came out at 0.06.
The same measure for A4G U20C G33U C46G: 0.03; for A4U A16C G19A G29C G30C: 0.02; for A4G U20C G30A: 0.17.
With A4U A26C A39G G40A the figure was 0.06; with A4U A39G U43C, 0.01; with A4G U9C C23U, 0.05.
With A4U A12U A26G U38A the figure was 0.32; with A4G G36U C37A A41U, 0.09.
As for A4U A11C G19U C46A, the self-cleavage came to 0.01.
With A4U A14G U34G the figure was 0.06; with A4U C8A A16C G33U U38G A39G, 0.13; with A4G U20G A39U G40U, 0.14.
On to A4U A12G A25U G40U, for which the self-cleavage amounted to 0.02.
The same measure for A4U A11G C13A C46U: 0.05; for A4U A12C G17U: 0; for A4U C8G G19U U34C: 0.09.
With A4U A16C G17C A26U U32G G40A the figure was 0.
As for A4U A16U C23U, the self-cleavage came to 0.03.
In the case of A4U A11C A12U G44U, the self-cleavage was found to be 0.05.
Turning to A4U A11G A14U G21A, the self-cleavage turned out to be 0.02.
Consider A4U A12G A39U C45U, for which the self-cleavage is 0.02.
A4U A6U C23A U32G: the self-cleavage stood at 0.11.
With A4U A12C G30C the figure was 0.07; with A4U A11C G27U G35A C42G, 0.
The same measure for A4U A6C U34G U43A: 0.01; for A4G U38G C46A: 0.03.
Regarding A4U A12G A16C G22C G30U, the self-cleavage was found to be 0.02.
The same measure for A4U A6G U9G G21A U43C: 0.17; for A4U A11C C13U C18G G40U: 0.03; for A4U C8A U20C A26G G40U G44C C46U: 0.05.
A4U A11U G30A: the self-cleavage is 0.05.
With A4U A39C A41G, the self-cleavage came out at 0.04.
With A4U A11U A16C G44U the figure was 0; with A4G U32G A41G, 0.03; with A4U A16G G21U G29C, 0.18.
The same measure for A4U A14C U20G: 0.3; for A4G U28G U38A C45U: 0.18.
As to A4U A14U G19C, the self-cleavage is 0.06.
For the variant A4U A11U A24G, the self-cleavage was determined as 0.
Consider A4U A12C C23U C31U, for which the self-cleavage came to 0.01.
The same measure for A4U C8A C18U: 0.26.
On to A4U A6C C23U G36A C42G C45G, for which the self-cleavage was determined as 0.02.
For A4G U9G G44A, the self-cleavage was determined as 0.08.
With A4G U9G G44C the figure was 0.04.
The same measure for A4U C8A A14U G35C A41U: 0.26; for A4G U20C A26G: 0.13; for A4G U9A A11U A12C A16U U34G G40A A41C: 0.01.
Consider A4U A11G U20C A25U C31U, for which the self-cleavage stood at 0.03.
As for A4U A12U G33U, the self-cleavage was 0.04.
With A4U A6C U9A C18A U28A the figure was 0.06.
With A4U C8A U9A C13U A26G C37G the figure was 0.26.
With A4G U20C G21A the figure was 0.26.
Turning to A4U A16U G21C A26U G29C, the self-cleavage was 0.12.
The same measure for A4U A11G C18U U20G: 0.
With A4U A6C C15U C42G, the self-cleavage amounted to 0.07.
With A4U A12U U32A the figure was 0.02.
With A4G U9A C18A C46A the figure was 0.03; with A4U A24U U28A G33U G40C, 0.1.
The same measure for A4U A11C C18U: 0.01; for A4U A6G C45G: 0.04.
Turning to A4U A26G G40U, the self-cleavage came to 0.08.
A4G G36A A41G: the self-cleavage stood at 0.11.
In the case of A4U A11G C31U C37G, the self-cleavage came to 0.01.
For A4G U9G U34A, the self-cleavage worked out at 0.06.
The same measure for A4U A12C C13U G22U U34C U38C: 0.02; for A4G U9G C46G: 0.24; for A4G U38G G44C: 0.02.
With A4G U34G G40C the figure was 0.24; with A4U A11G G19A, 0.02; with A4G U28G G36C, 0.05.
In the case of A4U C8A G29C, the self-cleavage was 0.08.
Regarding A4U A24G A41G, the self-cleavage amounted to 0.12.
In the case of A4U A11U A12G A16C A41U, the self-cleavage was determined as 0.01.
Take A4G G33C C37U U43A: the self-cleavage was determined as 0.02.
The same measure for A4G U9A C10U A16C G17U G27A C31A C46G: 0.04; for A4U A14G A24C: 0.03; for A4G G36U G40U U43A C45U: 0.03.
The same measure for A4U A12C A14C A41C C46A: 0.01; for A4U A26C C31A G36A C42A G44U: 0.02; for A4U C8G C10G G27U G29U G40A: 0.01.
The same measure for A4U A11C C15G: 0.04; for A4G G36A G40U: 0.23; for A4G U9G G36C U43G: 0.
As for A4G U34A C45U C46U, the self-cleavage came to 0.1.
With A4U A12C C13A G21U the figure was 0.1.
For the variant A4U A11C C31U A41G, the self-cleavage came out at 0.04.
The same measure for A4G U38G A41U: 0.05; for A4G U9A C31A G33U: 0.22.
A4U A12G U32G: the self-cleavage came to 0.1.
With A4U A11G G17U A39U the figure was 0.06; with A4U A12U C18U C46A, 0.17.
With A4G G36U C37U the figure was 0.01; with A4U A11C G19A G22U, 0.02.
On to A4U C8G G19U A25C U28G, for which the self-cleavage turned out to be 0.02.
With A4U A11U G33C C37A the figure was 0.02; with A4U A16U A39C, 0; with A4G U38A G40A, 0.04.
The same measure for A4U A6G G22A G27A G40U: 0.02.
A4G U9G U20G G36A: the self-cleavage is 0.09.
As to A4U A6G C10A G22A G36U, the self-cleavage was determined as 0.02.
The same measure for A4U A12U U28G: 0.16; for A4G G40U G44A: 0.37.
With A4G U20C G29U the figure was 0.17; with A4G U28C U32A C46G, 0.04; with A4U A6G U20A G33U, 0.12.
Consider A4U C8A U9C G17A C18U C31A G44A, for which the self-cleavage is 0.01.
As to A4G U20A G35A, the self-cleavage was 0.15.
As to A4U A16C C37A, the self-cleavage is 0.01.
With A4U A26G G33C C45U, the self-cleavage was 0.04.
With A4G U20A C23G the figure was 0.12.
With A4U A16U G19U G44U the figure was 0.05; with A4G G33A U38C, 0.29.
The same measure for A4U A12G C37U: 0.04; for A4U A41G G44C: 0.
For the variant A4U A12U C18G G35U, the self-cleavage stood at 0.09.
The same measure for A4U A14C G17U: 0.16; for A4G U9A G21C G44U: 0.06; for A4U A6G U43A: 0.11.
In the case of A4U A11U A26C C31A U32C G33A C37U U38C, the self-cleavage was found to be 0.01.
Take A4U A12G A14G G44C: the self-cleavage was found to be 0.02.
Turning to A4U A14C A16C G35U G36C G44A, the self-cleavage is 0.04.
Regarding A4U A16G A24U G36A, the self-cleavage was 0.09.
With A4G U32G G40U the figure was 0.05.
With A4U A6G G44A the figure was 0.07; with A4G U32G C42U, 0.05; with A4G U9G G19C G22A G35U A41U, 0.01.
On to A4U C8A C10U G29A G35C U38G C45G, for which the self-cleavage worked out at 0.03.
Consider A4U A11U C45U, for which the self-cleavage was 0.01.
Regarding A4U A11U C45A, the self-cleavage came to 0.02.
Consider A4G U9A A14G C15A C46U, for which the self-cleavage came out at 0.24.
With A4U A11U A26C G29C the figure was 0.01; with A4U A25U C31A A41U U43C, 0.09.
The same measure for A4U A26U C42G: 0.24; for A4U A25C G30C: 0.09; for A4G G40U C45U: 0.06.
Consider A4U A16C A25G U32G, for which the self-cleavage turned out to be 0.43.
On to A4U A11C A12U A14C U38G, for which the self-cleavage was determined as 0.02.
The same measure for A4U C8A A14U A25C: 0.13.
The same measure for A4U A25C A39U: 0.06; for A4U A12U C46G: 0.08; for A4G U38C C45A: 0.07.
As to A4U A6C G21A G40A C45A, the self-cleavage was 0.03.
For A4U A11U G44U, the self-cleavage was 0.01.
With A4U C8A C46A the figure was 0.59.
With A4U A12G U28G C46A, the self-cleavage came to 0.03.
With A4U A16U A26G C42U the figure was 0.12.
Take A4U A16C G19A C23A G36C: the self-cleavage turned out to be 0.09.
As for A4U A16G G19U A25U G27C U34A, the self-cleavage was 0.
The same measure for A4G U20C U28A C31A: 0.44.
The same measure for A4G U9G G33C: 0.02; for A4U A11C A24U G44U: 0.03; for A4U A26U C37U U43C: 0.03.
For the variant A4G U9A C13A G19U C23U G27C, the self-cleavage is 0.28.
On to A4U A12C C46A, for which the self-cleavage came to 0.03.
With A4U A25C G36A the figure was 0.07; with A4G U9G G22C, 0.08; with A4U A12C G29A, 0.05.
As for A4U A41U C42A, the self-cleavage amounted to 0.07.
The same measure for A4U C8A A41C: 0.09; for A4G U9A U34C: 0.04.
With A4U A6C U9G C31A the figure was 0.03; with A4U A14G U34G G36A, 0.01; with A4G U9A C10G, 0.02.
Regarding A4U A24G G30U, the self-cleavage was 2.44.
